Hit rate of the full screen: of about 420,000 compounds, about 64,000 (15%) were called active. Inconclusive results, whose numbers are uncertain, are shown with a selection of clear calls. Calls follow the shape of the dose curve; as a rule, active = well fitted inhibition curve with a large enough effect; inconclusive = small, poorly fitted or top-dose-only effect; inactive = flat fitted curve, though single readings scatter. No potency is given beside an inconclusive call; the fits are too rough.
experiment: qHTS for Inhibitors of human tyrosyl-DNA phosphodiesterase 1 (TDP1): qHTS in cells in absence of CPT; conditions: DT40 Tdp1-/- hTDP1 cells, no CPT, ATP luminescence, 48 h; activity change, negative = growth inhibition: at 46.2 µM (top of the series) unless noted; also: nearly all actives have a fitted effect of over 55% in size
Method in brief: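 Camptothecin absent (DMSO only). Human TDP1-complemented DT40 knockout cells, 400 cells/well, 37 °C for minimum 48 hr; ATP measured via CellTiter-Glo, 30 min dark incubation, luminescence.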
% is scaled to controls: 0 for no effect and ±100 for the full control effect; potency is read from the fitted curve at half-maximal effect; tags tell the direction and shape of the fitted curve.

Row | Structure (SMILES) | Potency | activity change, negative = growth inhibition
1 | CN1CCSc2ccc(C(=O)NCc3cccc(F)c3)cc21 | inconclusive [inhibitor, single point] | –
2 | O=C1/C(=C\Nc2ccc(Cl)cc2)CCN1c1ncccn1 | inconclusive [inhibitor, partial curve] | –
3 | CC(=O)NC(C(=O)O)C(C)(C)SN=O (configuration not stated) | inactive | –
4 | O=C(Nc1ccc2c(c1)OCO2)c1cccc2c1C(=O)N(Cc1cccnc1)C2 | inconclusive [inhibitor, single point] | –
5 | CCOC(=O)N1CCN(Cc2nc3cc(NC(=O)c4ccc(OC)cc4)ccc3n2C(C)C)CC1 | inconclusive [inhibitor, partial curve, poor fit] | –
6 | O=C1[C@@H]2Cc3c([nH]c4ccccc34)C(c3ccccc3)N2C(=O)CN1C1CC1 (some centres not stated) | inconclusive [inhibitor, partial curve, poor fit] | –
7 | CC(C)C(NC(=O)C(c1ccccc1)c1ccccc1)c1nc2ccccc2[nH]1 (configuration not stated) | inconclusive [inhibitor, single point] | –
8 | Cc1cnc(C(=O)OCC(=O)N2CCc3ccccc32)cn1 | inconclusive [inhibitor, single point] | –
9 | Cc1c(NC(=O)CN2C(=O)NC3(CCCCC3)C2=O)c(=O)n(-c2ccccc2)n1C | inactive | –
10 | COCC1CCCCN1C(=O)c1ccc2oc(CCc3ccccc3)nc2c1 (configuration not stated) | inconclusive [inhibitor, single point] | –
11 | CN(Cc1cn(C)nc1-c1cccc(Cl)c1)CC1CCCCO1 (configuration not stated) | inactive | –
12 | C=CCc1ccc(OCCOCCNCCCC)c(OC)c1 | – | inconclusive: -34% [inhibitor]
13 | COc1ccc(OCC(=O)Nc2nnc3n2CCS3)cc1 | inactive | –
14 | Clc1cccc(CN2CCCCCC2)c1 | inactive | –
15 | O=C(Nc1ccc(Oc2ccccc2)cc1)c1ccco1 | inconclusive [inhibitor, single point] | –
16 | O=C(NCc1ccncc1)C(=O)NCc1ccco1 | inactive | –
17 | CCN1C(=O)[C@H]2[C@@H](c3ccc(Cl)cc3)N3C(=O)CN(CC4CC4)C(=O)[C@@]3(C)[C@H]2C1=O | inactive | –
18 | C/C(=N\N1C(=O)CSC1=S)c1ccc(Br)cc1 | inactive | –
19 | O=C(COC(=O)/C=C/c1ccc(C(F)(F)F)cc1)NC1CC1 | inconclusive [inhibitor, single point] | –
20 | Cc1ccc(CN2CCSc3ccc(C(=O)NCCc4ccccc4)cc32)cc1 | active: 23.1 µM | –
21 | O=C(CCC1CCCN(C(=O)C2=CCCC2)C1)N1CCN(c2ccccn2)CC1 (configuration not stated) | active: 23.1 µM | –
22 | CC1(c2ccccc2Cl)NC(=O)N(CC(=O)N2CCN(S(=O)(=O)c3ccccc3)CC2)C1=O (configuration not stated) | inactive | –
